Screen size: about 310,000 compounds; about 14,000 (4.5%) showed an effect of 50% or more. The effect is printed as a negative number. This is one part of the list.
Biological target: human ether-à-go-go-related gene (hERG) potassium channel (human, UniProt Q12809)
Assay: primary screen, population patch clamp on CHO cells stably expressing hERG
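Further: peak tail current of the secondary pulse compared with the same well before compound.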

Chain of human ether-à-go-go-related gene (hERG) potassium channel (Q12809 whole entry, looked up): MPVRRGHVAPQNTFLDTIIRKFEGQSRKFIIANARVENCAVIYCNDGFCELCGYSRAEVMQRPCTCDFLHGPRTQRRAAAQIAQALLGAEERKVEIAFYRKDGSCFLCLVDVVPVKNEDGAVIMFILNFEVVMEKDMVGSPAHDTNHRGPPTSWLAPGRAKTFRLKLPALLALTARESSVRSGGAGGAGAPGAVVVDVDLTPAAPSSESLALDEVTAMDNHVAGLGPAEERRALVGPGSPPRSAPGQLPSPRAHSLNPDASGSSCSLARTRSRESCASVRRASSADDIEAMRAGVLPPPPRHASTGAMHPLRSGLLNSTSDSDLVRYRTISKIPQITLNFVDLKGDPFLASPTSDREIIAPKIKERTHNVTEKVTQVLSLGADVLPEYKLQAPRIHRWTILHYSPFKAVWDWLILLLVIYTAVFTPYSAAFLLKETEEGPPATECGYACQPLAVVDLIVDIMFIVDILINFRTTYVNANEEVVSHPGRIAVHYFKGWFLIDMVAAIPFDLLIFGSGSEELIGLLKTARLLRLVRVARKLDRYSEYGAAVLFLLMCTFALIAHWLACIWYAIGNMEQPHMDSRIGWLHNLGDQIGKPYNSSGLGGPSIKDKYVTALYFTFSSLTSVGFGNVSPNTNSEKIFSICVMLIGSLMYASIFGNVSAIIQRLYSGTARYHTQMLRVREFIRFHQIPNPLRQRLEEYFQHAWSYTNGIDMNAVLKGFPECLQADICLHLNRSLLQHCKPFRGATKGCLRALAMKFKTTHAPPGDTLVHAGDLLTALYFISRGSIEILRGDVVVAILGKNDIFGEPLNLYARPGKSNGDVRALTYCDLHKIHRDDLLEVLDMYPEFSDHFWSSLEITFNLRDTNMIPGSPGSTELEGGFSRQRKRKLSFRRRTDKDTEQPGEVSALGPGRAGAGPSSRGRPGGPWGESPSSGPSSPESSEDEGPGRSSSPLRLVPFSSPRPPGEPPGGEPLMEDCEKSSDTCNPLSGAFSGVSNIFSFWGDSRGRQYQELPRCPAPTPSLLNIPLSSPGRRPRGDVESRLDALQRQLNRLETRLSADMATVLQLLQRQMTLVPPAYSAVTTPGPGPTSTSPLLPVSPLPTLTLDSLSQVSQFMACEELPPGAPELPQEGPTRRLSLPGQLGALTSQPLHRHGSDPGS

| Structure (SMILES) | hERG current change (%, negative = inhibition) at 10uM [%] |
| --- | --- |
| Cc1ccc(N2CC(C(N)=O)CC2=O)cc1 (stereo not shown) | 4.9 |
| Cc1cc(C=O)c(C)n1-c1cc(C(F)(F)F)ccc1N1CCOCC1 | -5.79 |
| O=C(CSc1nc2ccccc2[nH]1)NC1CCCC1 | 15.9 |
| COc1ccc(C(=O)N(CN2CCCC2=O)c2cc(C)on2)cc1OC | -12 |
| O=C(CNC(=O)c1sc2ccccc2c1Cl)NCc1cccnc1 | 4.31 |
| COc1ccc(-n2c(C)cc(C(=O)C[N+]34CCN(CC3)CC4)c2C)cc1.[Cl-] | 21.6 |
| O=C1CN(C(=O)CSc2nnnn2-c2ccc(Cl)cc2)c2ccccc2N1 | -32.9 |
| COc1cc(C)c(C(=O)Oc2cc(C)c(C(=O)O)c(O)c2C)c(O)c1C(=O)O | 23.2 |
| CCOCCn1c(SCc2cccc(C)c2)nc2c1c(=O)[nH]c(=O)n2C | -45.1 |
| CCOC(=O)c1ccc(NC(=S)NCc2ccc(S(N)(=O)=O)cc2)cc1 | 16.5 |
| O=Cc1ccc(Cl)c(Cl)c1 | 10.9 |
| CSc1ccccc1OCc1cc(C(=O)N(C)Cc2cnccn2)no1 | 1.87 |
| Cc1ccccc1NC(=S)N(C)C1(c2ccccc2Cl)CCCCC1=O (stereo not shown) | -4.89 |
| Cc1ccc(Cn2cccc2/C=C2/C(=N)N3C=CSC3=NC2=O)cc1 | -2.8 |
| CCC(=O)/C=C1\Sc2ccc(OC)cc2N1CC | -2.14 |
| CCc1cccc2c(C(=O)CN3C(=O)C(=O)N(C4CCCC4)C3=O)c[nH]c12 | 5.55 |
| CC(C)CN(CC(C)C)S(=O)(=O)N1CCC(C(=O)NCc2ccc3c(c2)OCO3)CC1 | 0.114 |
| CCOC(=O)c1sc(=S)n(-c2ccccc2Cl)c1SC | -33 |
| CC(C)(Oc1ccc(Cl)cc1)C(=O)NCC1CCCO1 (stereo not shown) | 0.56 |
| CSc1ccc(/C=C(/Sc2nnc(-c3ccccc3)o2)C(=O)O)cc1 | 24.2 |
| O=C(CSc1ncccc1-c1nc2ccccc2[nH]1)N1CCCCC1 | -16.3 |
| Cc1ccc(CNC(=O)CNS(=O)(=O)c2cccc3nsnc23)cc1 | -7.87 |
| COc1cc(/C=C2\SC(=Nc3ccc(F)cc3)N(c3ccc(F)cc3)C2=O)ccc1OCC(=O)O | 10.4 |

| Structure (SMILES) | hERG current change (%, negative = inhibition) at 10uM [%] |
| --- | --- |
| O=C(Nc1nnc(Cc2ccc(Cl)cc2)s1)c1cccnc1 | 13.9 |
| O=C(NC(=S)Nc1cc(C(F)(F)F)ccc1Cl)c1ccccc1 | 10.5 |
| Cc1ccc2cc(CCNS(=O)(=O)c3ccc(F)cc3)c(=O)[nH]c2c1C | 10.9 |
| COc1ccccc1C(C)NCC(=O)NC(=O)NCc1ccco1 (stereo not shown) | -3.16 |
| O=C(/C=C/c1cccs1)NC1CC1 | 44.1 |
| CC1(C)C[C@@H]2C[C@@](C)(CN2C(=O)c2ccccc2)C1 | 11.3 |
| Cc1ccc(C)c(NC(=O)c2cc3c([nH]c4ccccc43)c(C)n2)c1 | 5.7 |
| CCOC(=O)c1cc(S(=O)(=O)N2CCN(Cc3ccccc3)CC2)cn1C | -17.7 |
| COc1ccc(O)c(C(=O)c2cnn(-c3ccccn3)c2)c1 | -6.63 |
| O=C(Cc1n[nH]c(=O)c2ccccc12)NC(c1ccccc1)c1ccccc1 | 6.6 |
| CCOC(=O)c1c(NC(=O)CNCC(O)CO)sc(C)c1C (stereo not shown) | -7.91 |
| COCCNCCCOc1ccc(Cl)cc1Br.O=C(O)C(=O)O | -42 |
| CCCCNC(=O)CC1N=C2c3ccccc3N=C(SCC(=O)Nc3cccc(C)c3)N2C1=O (stereo not shown) | -52.6 |
| Cc1cc(Cl)ccc1NC(=O)CN1C(=O)C(=O)N(C2CCCC2)C1=O | -5 |
| Cc1cccc(OCC(=O)OCC(=O)NCC2CCCO2)c1C (stereo not shown) | 9.72 |
| CC(C)(C)OC(=O)N[C@@H](COCc1ccccc1)C(=O)N[C@@H](CO)[C@H](O)[C@@H]1C[C@@H]1C(=O)NC1CC1 | 16 |
| O=C(/C=C/c1ccc(F)cc1)c1ccccc1Br | -17.4 |
| O=C(CSc1c[nH]c2ccccc12)NCC1CCCO1 (stereo not shown) | 11.7 |
| CC(=O)N/C(=C\c1ccc(F)cc1)C(=O)OC(C)C | 0.32 |
| C=CCc1cc(C)ccc1OCCCC(C(=O)OCC)C(=O)OCC | -0.439 |
| COc1cccc2c1C(=O)O/C2=C/c1ccc2c(c1)OCO2 | 9.22 |
| C=CCOC(=O)C1=C[C@@H](c2coc3ccccc3c2=O)C[C@@H](OCc2ccc(CO)cc2)O1 | -40.9 |
| COC(C[C@@H](O)C[C@H](O)[C@H](C)OCc1ccccc1)OC | 13.7 |

— article PMC4336329 (PLoS ONE, 2015)
